The data set is described as follows: Evaluation of thermal stability, DSC. It counts as physicochemical. To be noted: heating 5° C. per minute.

Some values that stand alone complete this part of the results.

With `CCCCCCCCCCc1ccc2cc3c(cc2c1)sc1cc2c(cc13)sc1cc3cc(CCCCCCCCCC)ccc3cc12` [Example 4, 3,11-didecyldinaphtho[2,3-d:2′,3′-d′]benzo[1,2-b:4,5-b′]dithiophene], the phase transition points reads like this: (first phase transition point) 217 °C; (second phase transition point) 260 °C.

The record behind these values is US9853225B2, “Chalcogen-containing organic compound and a use thereof” (JNC CORPORATION, priority 2013, dated 2017).
